Laboratory results as given in US8580254B2, “Anti-IGF antibodies” (Boehringer Ingelheim International GmbH, priority 2007, dated 2013).

What was measured:
total murine serum IGF-1 = assay: Effect on total murine serum IGF-1 levels; type: in vivo, athymic NMRI nude mice; settings: single i.v. doses 12.5, 25, 50, 100 mg/kg; 24 hour post administration; FIG. 8
Description: Single intravenous (bolus) administrations of 12.5, 25, 50 and 100 mg/kg of antibody 40186 are given to female athymic NMRI nude mice, 6-8 weeks old (n=5). 24 hours post administration a blood sample is taken, serum collected, and total murine IGF-1 levels determined using the OCTEIA rat/mouse total IGF-1 immunocytometric assay. The assay is performed according to the manufacturer's instructions, absorbance is measured at 450 nm and evaluated using the SoftMax Pro software. A standard curve is used to determine the serum concentration of total IGF-1 in ng/ml. Statistical analysis is performed using the GraphPad Prism software.

TC-71 = assay: Ewing sarcoma-derived cell line growth assay; type: cell-based, human; settings: medium containing 10% FCS; 120 hours; relative to humanized isotype control antibody; FIG. 5A
Description: The Ewing sarcoma-derived cell lines TC-71 (ATCC #ACC516) and SK-N-MC (ATCC #HTB86) are plated in 96-well plates at a density of 1000 cells per well in DMEM medium containing 1×NEAA, 1× sodium pyruvate, 1× glutamax and 10% fetal calf serum (FCS) and incubated overnight at 37° C. and 5% CO2 in a humidified atmosphere. The following day, a serial dilution of test antibody and humanized isotype control antibody (a humanized IgG1 antibody targeted to CD44-v6) are added to the cells. The typical concentrations used are 10, 3.33, 1.11, 0.37, 0.13 and 0.04 μg/ml and each dilution is performed in triplicate wells. The cells plus antibody are then incubated for 120 hours after which time the relative cell number in each well is determined using the CellTiter-Glo luminescent cell viability assay (Promega). Luminescence is recorded using a XFluor GENios Pro 4 and for data analysis the mean value from triplicate wells is taken and fitted by iterative calculations using a sigmoidal curve analysis program (Graph Pad Prism) with variable Hill slope.

[1] = tested on: IGF-1 induced phosphorylation of ribosomal S6 protein in COLO 205 cells; assay: Western blot analysis of phosphorylated ribosomal S6; type: cell-based, human; settings: 10 ng/ml IGF-1, 30 μg/ml antibody, four hours, FIG. 4
Description: (§1) COLO 205 cells are plated in 6-well plates in medium containing 10% serum and after two days they are harvested and re-plated in serum-free medium. The cells are then incubated with 10 ng/ml IGF-1 or IGF-2 with or without 30 μg/ml GF antibody for four hours before being lysed and the cell lysate frozen after the protein concentration had been determined using a Bradford assay. Western blotting is performed by applying 13 μg of protein lysates to an SDS PAGE gel (BioRad) and the gel blotted on a Citerian gel blotting sandwich. Western blots are incubated overnight with both a rabbit anti-β actin (control) antibody and a rabbit anti-phospho-S6 ribosomal protein (Ser235/236) antibody (Cell Signaling) at 1:1000 dilutions in 1% milk powder. Following washing in TBS an anti-rabbit IgG HRPO-conjugated secondary antibody (Amersham) is applied for 1 hour and after further washes in TBS antibody reactivity is detected by ECL and captured on Hyperfilm (Amersham).

[2] = tested on: IGF-2 induced phosphorylation of ribosomal S6 protein in COLO 205 cells; assay: as above; type: cell-based, human; settings: 10 ng/ml IGF-2, 30 μg/ml antibody, four hours, FIG. 4
Description: as §1

human IGF-1 = biological target: T1, human IGF-1 (Homo sapiens, UniProt P05019); assay: Surface plasmon resonance (Biacore), antibody capture method; type: binding
T1 construct: Insulin-like growth factor-1 (IGF-1; a 70 amino-acid polypeptide)
Description: (§2) a) Antibody Capture Method
(§3) The sensor chip is coated with approximately 1000 RU of the reference antibody in flow cell 1 and approximately 1000 RU of a rabbit-anti-human Fc-gamma-specific antibody in flow cell 2 using the coupling reagents from an amine coupling kit. A target of 1000 RU is set in the surface preparation wizard of the Biacore 3000 software at a flow rate of 5 μl/min. Running buffer used is HBS-EP. The affinity measurements are made using the following parameters: 20 μl/min flow (HCB running buffer:); 25° C. detection temperature; Fc1, Fc2 flow paths; Fc1, Fc2 detection; anti-IGF-huMAb-capturing: 3 min of a 1 μg/ml solution; 5 min IGF-Ag-association; 5 min IGF-Ag-dissociation; regeneration: 30 sec pulse with 50 mM HCl. The IGF antigens are diluted to 500, 250, 125, 62.5 and 31.3 nM in running buffer (HCB) and the different antigen dilutions are run singly over Fc1 and Fc2 with random order. Blank runs using running buffer only are run in-between. A blank run curve is subtracted from each binding curve before affinity analysis. Data evaluation is performed using the BIAevaluation software (version 4.1, Biacore, Freiburg, Germany). The dissociation and association phases of the kinetics are fitted separately. For the separate fit of the kdiss values a time-frame of the initial 200-300 seconds in the dissociation phase is used (range of steady decrease of signal). For the separate fit of the kass values, initial time frames of approx 100 seconds are used (range of steady increase of signal) and for calculation the individual kdiss values are used with the 1:1 Langmuir association model. The average values with the standard deviations of the kinetic data together with the corresponding dissociation (KD) and association (KA) constants are calculated.
(§4) Surface plasmon resonance is performed using a Biacore instrument to determine the affinity constants for binding of the IGF antibodies to human, rat and mouse IGF-1 and IGF-2.
(§5) The analysis is initially performed by capturing the IGF antibodies on the sensor chip and injecting a range of antigen concentrations, thereby eliminating the possibility of an avidity effect.

mouse IGF-1 = biological target: T2, mouse IGF-1 (Mus musculus, UniProt P05017); assay: as above; type: binding
T2 construct: Insulin-like growth factor-1 (IGF-1; a 70 amino-acid polypeptide)
Description: as §2, §3, §4, §5

rat IGF-2 = biological target: T3, rat IGF-2 (Rattus norvegicus, UniProt P01346); assay: as above; type: binding
T3 construct: insulin-like growth factor-2 (IGF-2; a 67 amino-acid polypeptide)
T3 sequence (P01346 25-91 limits assumed): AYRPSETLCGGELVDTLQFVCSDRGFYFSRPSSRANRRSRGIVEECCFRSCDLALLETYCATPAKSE
Description: as §2, §3, §4, §5

human IGF-2 = biological target: T4, human IGF-2 (Homo sapiens, UniProt P01344); assay: as above; type: binding
T4 construct: insulin-like growth factor-2 (IGF-2; a 67 amino-acid polypeptide)
Description: as §2, §3, §4, §5

mouse IGF-2 = biological target: T5, mouse IGF-2 (Mus musculus, UniProt P09535); assay: as above; type: binding
T5 construct: insulin-like growth factor-2 (IGF-2; a 67 amino-acid polypeptide)
Description: as §2, §3, §4, §5

rat IGF-1 = biological target: T6, rat IGF-1 (Rattus norvegicus, UniProt P08025); assay: as above; type: binding
T6 construct: Insulin-like growth factor-1 (IGF-1; a 70 amino-acid polypeptide)
T6 sequence (P08025 49-118 limits assumed): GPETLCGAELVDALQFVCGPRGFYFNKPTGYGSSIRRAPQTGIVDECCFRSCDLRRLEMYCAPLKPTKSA
Description: as §2, §3, §4, §5

B1: antibody 40186: fully human IgG1/Igλ antibody binding IGF-1 and IGF-2; heavy chain SEQ ID NO:25, light chain SEQ ID NO:26 (antibody, listed as Homo sapiens)
heavy: QVELVESGGGLVQPGGSLRLSCAASGFTFSNYWMHWVRQAPGKGLEWVSGISGWSSWTYYADSVKGRFTISRDNSKNTLYLQMNSLRAEDTAVYYCARFGIDAYTKVYFDYWGQGTLVTVSS[in this place human IgG1 constant region]
light: DIELTQPPSVSVAPGQTARISCSGDNIPLKYVSWYQQKPGQAPVLVIHDDNKRPSGIPERFSGSNSGNTATLTISGTQAEDEADYYCQSWASTGVVFGGGTKLTVLGQPKAAPSVTLFPPSSEELQANKATLVCLISDFYPGAVTVAWKGDSSPVKAGVETTTPSKQSNNKYAASSYLSLTPEQWKSHRSYSCQVTHEGSTVEKTVAPTECS
serum total murine IGF-1 levels (total murine serum IGF-1): dose dependent elevation
effect on growth of TC-71 cells (TC-71): dose-dependent inhibition of cell growth
effect on IGF-1 induced ribosomal S6 phosphorylation [1]: completely neutralizes
effect on IGF-2 induced ribosomal S6 phosphorylation [2]: completely neutralizes
KA (human IGF-1): 2.16e+08 M⁻¹
kass (human IGF-1): 581000 M⁻¹ s⁻¹
kdiss (human IGF-1): 0.0027 s⁻¹
KA (mouse IGF-1): 1.44e+08 M⁻¹
kass (mouse IGF-1): 466000 M⁻¹ s⁻¹
kdiss (mouse IGF-1): 0.00329 s⁻¹
KA (rat IGF-2): 1.67e+08 M⁻¹
kass (rat IGF-2): 602000 M⁻¹ s⁻¹
kdiss (rat IGF-2): 0.00351 s⁻¹
KA (human IGF-2): 2.86e+08 M⁻¹
kass (human IGF-2): 1.03e+06 M⁻¹ s⁻¹
kdiss (human IGF-2): 0.00362 s⁻¹
KA (mouse IGF-2): 1.08e+08 M⁻¹
kass (mouse IGF-2): 632000 M⁻¹ s⁻¹
kdiss (mouse IGF-2): 0.00586 s⁻¹
KA (rat IGF-1): 3.67e+08 M⁻¹
kass (rat IGF-1): 1.1e+06 M⁻¹ s⁻¹
kdiss (rat IGF-1): 0.00301 s⁻¹
